“And” between values parts separate entries of the source, which are not always exact repeats. Equal values may be shown once. This list was built around the results that the source calls inconclusive (neither active nor inactive); the mix of calls is not that of the screen. For some assays here: Potencies of inconclusive entries are doubtful fits and often do not repeat. The source made the active and inactive calls. Unless noted, calls come from the whole dose curve; as a rule, active = well fitted curve in the direction sought with a large enough effect; inconclusive = small, poorly fitted or top-dose-only effect, or another doubt; inactive = no such curve, though single readings can be large; an effect the other way counts as inactive or inconclusive.
How the values were obtained:
[1] = target: 3',5'-cyclic-AMP phosphodiesterase 4B (Homo sapiens) (UniProt Q07343); assay: qHTS Assay for Inhibitors of PDE-IV (AID 607; active = well fitted activation curve with a large enough effect in the main read-out, with a control signal flat, not every such curve was filed as active; inconclusive = small, poorly fitted or top-dose-only effect, or effect the other way, or a change in a side signal; note: potency is the fitted concentration of half-maximal effect)
Sequence of UniProt Q07343 (Q07343 whole entry, looked up): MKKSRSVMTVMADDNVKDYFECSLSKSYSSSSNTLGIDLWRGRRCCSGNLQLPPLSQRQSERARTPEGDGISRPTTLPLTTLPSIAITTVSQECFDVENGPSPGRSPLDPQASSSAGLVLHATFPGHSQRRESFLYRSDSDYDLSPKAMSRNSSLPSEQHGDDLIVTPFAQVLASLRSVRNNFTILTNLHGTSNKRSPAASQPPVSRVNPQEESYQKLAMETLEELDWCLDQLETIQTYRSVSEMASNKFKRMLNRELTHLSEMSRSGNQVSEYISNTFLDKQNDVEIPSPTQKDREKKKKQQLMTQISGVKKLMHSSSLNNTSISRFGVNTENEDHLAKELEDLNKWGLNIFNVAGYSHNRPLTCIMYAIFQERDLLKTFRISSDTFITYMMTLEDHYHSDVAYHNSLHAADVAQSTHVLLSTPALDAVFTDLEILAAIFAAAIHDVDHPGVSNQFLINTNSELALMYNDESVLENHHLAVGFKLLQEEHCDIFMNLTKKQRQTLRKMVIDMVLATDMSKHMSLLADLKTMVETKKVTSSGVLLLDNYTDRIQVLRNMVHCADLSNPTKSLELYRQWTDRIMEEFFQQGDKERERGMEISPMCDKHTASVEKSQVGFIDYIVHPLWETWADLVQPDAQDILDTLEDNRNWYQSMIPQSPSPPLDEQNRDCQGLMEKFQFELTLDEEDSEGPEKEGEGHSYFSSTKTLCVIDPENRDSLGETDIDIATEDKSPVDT
Summary of the method: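 HEK293 ACTOne cells with CNG channel (1000/well), endogenous PDE4; membrane potential dye, compounds up to 22.9 uM final. Fluorescence Ex 535/Em 590; RO 20-1724 (100 uM final) as reference.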

[2] = Cell Viability - Renal Proximal Tubule (AID 545); conditions: renal proximal tubule cells viability, primary cells of rat origin; at 91.7 µM (top of the series);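 note: cells exposed to compound for 40 hours; nearly all actives have a fitted effect of over 40% in size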
Summary of the method: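 Viability taken as intracellular ATP (CellTiter-Glo luminescence) after 40 hr, 37 °C compound treatment of primary proximal tubule cells from rat kidney, 1000 cells/well; Hill-equation fits of qHTS concentration-response data gave AC50.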

[3] = target: Cytochrome P450 3A4 (Homo sapiens) (UniProt P08684); assay: qHTS Assay for Inhibitors and Substrates of Cytochrome P450 3A4 (AID 884); note: nearly all actives have a fitted effect of over 50% in size; note: potency is the fitted concentration of half-maximal effect; for activity change, negative = inhibition: % is set by controls: 0 for no effect and ±100 for the full control effect
Sequence of UniProt P08684 (P08684 whole entry, looked up): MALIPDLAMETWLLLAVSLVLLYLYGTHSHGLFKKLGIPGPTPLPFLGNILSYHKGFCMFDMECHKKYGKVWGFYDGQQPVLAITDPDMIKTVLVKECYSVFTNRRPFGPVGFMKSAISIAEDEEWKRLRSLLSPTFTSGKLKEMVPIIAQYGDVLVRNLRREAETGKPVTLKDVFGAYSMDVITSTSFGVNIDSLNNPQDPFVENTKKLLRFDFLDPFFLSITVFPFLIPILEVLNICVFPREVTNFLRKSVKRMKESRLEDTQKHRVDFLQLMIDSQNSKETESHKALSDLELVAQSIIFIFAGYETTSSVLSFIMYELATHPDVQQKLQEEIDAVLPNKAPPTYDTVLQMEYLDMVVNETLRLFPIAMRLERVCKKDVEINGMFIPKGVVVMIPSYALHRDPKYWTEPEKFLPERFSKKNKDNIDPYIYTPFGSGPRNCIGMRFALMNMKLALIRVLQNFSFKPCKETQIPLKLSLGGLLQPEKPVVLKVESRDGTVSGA
Summary of the method: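 Luminescent readout of luciferin produced by CYP3A4 (20 nM) dealkylation of Luciferin-PPXE, 25 uM (its KM). NADPH-driven reaction ran 60 min at RT after 10 min compound preincubation; data scaled to 57 uM ketoconazole as 100% inhibition.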

[4] = Cell Viability - NIH 3T3 (AID 541); conditions: NIH 3T3 cell viability, qHTS; activity change, negative = cytotoxicity: at 92.2 µM (top of the series);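 note: cells exposed to compound for 40 hours; plate controls were DMSO alone for no effect and tamoxifen positive control for full effect; nearly all actives have a fitted effect of over 25% in size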
Summary of the method: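 qHTS format; 40 hr compound exposure, 37 °C; CellTiter-Glo luminescence (cellular ATP) read-out after 20 min at RT. Decrease in ATP = cytotoxicity; AC50 from standard Hill fit.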

[5] = Cell Viability - SH-SY5Y (AID 544); conditions: SH-SY5Y neuroblastoma cell viability; at 92.2 µM (top of the series);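 note: cells exposed to compound for 40 hours; nearly all actives have a fitted effect of over 55% in size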
Summary of the method: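 SH-SY5Y, 1500 cells/well, 5 hr pre-incubation 37 °C; cpd 40 hr 37 °C; CellTiter-Glo 20 min RT; luminescence (ATP) read. qHTS concentration-response, Hill fit → AC50. Tamoxifen, doxorubicin as positive controls.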

[6] = Cell Viability - Mesenchymal (AID 546);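 note: potency is the fitted concentration of half-maximal effect; cells exposed to compound for 40 hours before reading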
Summary of the method: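 In this qHTS cytotoxicity format, glomerulus-derived human mesenchymal kidney cells received compound for 40 hr, then luciferase-based ATP quantitation. Concentration-response data were fitted with the Hill equation.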

[7] = Cellular Toxicity (caspase-3) HepG2 (AID 654); conditions: HepG2 caspase-3 activation, luminescence; note: potency is the fitted concentration of half-maximal effect
Summary of the method: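 Luminescent Caspase-Glo 3/7 readout after 16 hr compound exposure of human hepatocellular carcinoma HepG2 cells at 37 °C; qHTS concentration-response, normalized DMSO = 0%, 100 uM tamoxifen = 100%; AC50 by standard Hill equation.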

[8] = Cellular Toxicity (caspase-3) MRC-5 (AID 659); conditions: MRC-5 cells, luminescence, normalized: DMSO 0%, 10 µM staurosporine 100%; at 91.7 µM (top of the series)
Summary of the method: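 Apoptosis readout in MRC-5 cells: luciferase light generated after caspase 3/7 cleaves a peptide-aminoluciferin substrate, measured post 16 hr compound incubation at 37 °C.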

[9] = Cellular Toxicity (caspase-3) Renal Proximal Tubule (AID 667); conditions: renal proximal tubule cells, primary cells freshly taken from rat, solvent-only wells 0%, staurosporine 100%; at 91.7 µM (top of the series);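 note: cells exposed to compound for 16 hours at 37 °C before detection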
Summary of the method: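 Caspase 3/7 activation measured by luminescent aminoluciferin release in primary rat proximal tubule cells after 16 hr compound exposure at 37 °C. AC50 from Hill-fitted concentration-response, scaled between DMSO and 10 uM staurosporine.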

[10] = Cell Viability - H-4-II-E (AID 543); conditions: H-4-II-E rat hepatoma viability;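 note: potency is the fitted concentration of half-maximal effect; cells exposed to compound for 40 hours; nearly all actives have a fitted effect of over 35% in size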
Summary of the method: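 qHTS, rat hepatoma H-4-II-E, 1500 cells/well; 40 hr compound exposure, 37 °C; CellTiter-Glo ATP luminescence after 20 min RT; AC50 by standard Hill fit.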

[11] = Cellular Toxicity (caspase-3) Hek293 (AID 664); conditions: HEK293 caspase-3 activation, DMSO = 0%, 100 µM tamoxifen = 100%; at 92.2 µM (top of the series);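 note: cells exposed to compound for 16 h at 37 °C before readout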
Summary of the method: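 Luminescent Caspase-Glo 3/7 readout (aminoluciferin release) in HEK293 cells after 16 h compound treatment, 37 °C. Normalization: DMSO = basal, 100 uM tamoxifen = 100% stimulation. Concentration-response fitted with standard Hill equation for AC50.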

[12] = qHTS Assay for Identification of Small Molecule Antagonists for NFkB Signaling Pathway (AID 895; active = well fitted inhibition curve with a large enough effect in the signal ratio, with a control signal flat, not every such curve was filed as active; inconclusive = small, poorly fitted or top-dose-only effect, or effect the other way, or a change in a side signal; the % refers to the signal ratio; note: potency is the fitted concentration of half-maximal effect; for activity change, negative = inhibition: % is set by controls: 0 for no effect and ±100 for the full control effect); conditions: NFkB beta-lactamase reporter cells, FRET ratio 460/530, stimulated with 10 pM TNF alpha; activity change, negative = inhibition: at 38.3 µM (top of the series)
Summary of the method: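 NFkB-bla ME-180 cervical carcinoma cells with beta-lactamase reporter under NFkB response element; compounds added, then TNF alpha at 10 pM final (EC50), 5 h at 37 C. LiveBLAzer substrate 2 h, room temperature; emission 460/530 nm at 405 nm excitation.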

[13] = target: Cytochrome P450 2C9 (Homo sapiens) (UniProt P11712); assay: qHTS Assay for Inhibitors and Substrates of Cytochrome P450 2C9 (AID 883); note: nearly all actives have a fitted effect of over 60% in size; note: potency is the fitted concentration of half-maximal effect; for activity change, negative = inhibition: % is set by controls: 0 for no effect and ±100 for the full control effect
Sequence of UniProt P11712 (P11712 whole entry, looked up): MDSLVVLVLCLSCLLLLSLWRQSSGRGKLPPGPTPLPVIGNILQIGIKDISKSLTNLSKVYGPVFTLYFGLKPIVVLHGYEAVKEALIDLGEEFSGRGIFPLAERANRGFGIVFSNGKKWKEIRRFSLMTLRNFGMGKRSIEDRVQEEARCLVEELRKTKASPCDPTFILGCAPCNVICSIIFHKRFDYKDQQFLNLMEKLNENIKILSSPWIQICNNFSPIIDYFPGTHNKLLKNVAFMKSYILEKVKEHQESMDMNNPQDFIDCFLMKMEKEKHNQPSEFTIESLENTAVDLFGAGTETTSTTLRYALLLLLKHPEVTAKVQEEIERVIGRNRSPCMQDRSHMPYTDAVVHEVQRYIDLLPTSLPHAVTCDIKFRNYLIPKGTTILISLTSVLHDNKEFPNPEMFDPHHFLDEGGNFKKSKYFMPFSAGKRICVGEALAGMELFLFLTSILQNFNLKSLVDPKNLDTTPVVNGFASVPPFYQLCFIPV
Summary of the method: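 Human CYP2C9 (10nM) hydroxylated Luciferin-H (100uM, at its KM) to luciferin in 25mM KPO4. Compound was preincubated 10 min at 37C, then NADPH regeneration started a 60 min reaction at 37C. Luminescence was read after detection reagent, normalized to 57uM sulphaphenazole.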

[14] = Cellular Toxicity (caspase-3) Mesangial (AID 660); conditions: mesangial cells, normalized: DMSO 0%, 100 µM tamoxifen 100%; at 91.7 µM (top of the series);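 note: combined caspase 3 and 7 activity read by Caspase-Glo luminescence; cells exposed to compound for 16 h before the caspase read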
Summary of the method: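 Luminescent Caspase-Glo 3/7 readout (aminoluciferin substrate cleavage, 20 min RT) after 16 h compound exposure at 37 °C of normal human mesangial cells. Signal increase normalized between DMSO basal and 100 uM tamoxifen; Hill-equation AC50.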

[15] = Cellular Toxicity (caspase-3) H-4-II-E (AID 663); conditions: H-4-II-E rat hepatoma, scaled: DMSO 0%, 100 µM tamoxifen 100%; at 92.2 µM (top of the series);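 note: cells exposed to compound for 16 hr before readout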
Summary of the method: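 Caspase 3/7 activation measured in H-4-II-E cells in complete culture medium after 16 hr treatment at 37 °C, using luciferase-coupled substrate readout; AC50 values come from Hill-equation fits of normalized concentration-response data.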

[16] = Cellular Toxicity (caspase-3) SK-N-SH (AID 661); conditions: SK-N-SH caspase-3 activation, qHTS, DMSO as zero, staurosporine as full; at 91.7 µM (top of the series);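 note: cells exposed to compound for 16 hours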
Summary of the method: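 Luminescent Caspase-Glo 3/7 read-out after 16 hr compound exposure of SK-N-SH neuroblastoma cells at 37 °C. Signal increase normalized to DMSO (basal) and 10 uM staurosporine (100%); AC50 from Hill equation fits of qHTS concentration-response data.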
Tags give direction and shape of the fitted curve or compound fluorescence and quenching.

CCOC(=O)C1=C(C)NC(=S)NC1c1cccc(O)c1 (stereo not drawn)
Potency [1]: inconclusive: 7.55 µM [activator, partial curve]

COc1ccc2c(c1)c(CC(=O)O)c(C)n2C(=O)c1ccc(Cl)cc1
activity change, negative = cytotoxicity [2]: inactive: -5.81%
Potency [3]: inactive

COC(=O)C1=C(C)NC(C)=C(C(=O)OC(C)C)C1c1cccc2nonc12 (stereo not drawn)
Potency [1]: inconclusive: 12 µM [activator, partial curve, poor fit]

CC[C@H](C)C(=O)O[C@H]1C[C@@H](C)C=C2C=C[C@H](C)[C@H](CC[C@@H]3C[C@@H](O)CC(=O)O3)[C@H]21
activity change, negative = cytotoxicity [4]: active: -92.8%
viability change, negative = cytotoxic [5]: inconclusive: -42.6%
Potency [6]: active: 7.94 µM
Potency [7]: inconclusive: 79.4 µM [rising, single point]
caspase-3 activation [8]: inactive: 11.9%
caspase-3 activation [9]: inconclusive: 9.71%

COc1cc2c(cc1OC)[C@@H]1C(=O)c3ccc4c(c3O[C@@H]1CO2)C=CC(C)(C)O4
Potency [1]: inconclusive: 19 µM [activator, single point]

Clc1ccc(COC(Cn2ccnc2)c2ccc(Cl)cc2Cl)c(Cl)c1 (stereo not drawn)
Potency [1]: inconclusive: 15.1 µM [rising, partial curve]

NC(N)=NC(=O)c1nc(Cl)c(N)nc1N
Potency [10]: inconclusive: 50.1 µM [falling, partial curve]
viability change, negative = cytotoxic [5]: inconclusive: -38%
caspase-3 activation [11]: inactive: -1.59%
Potency [12]: inactive

O=C(O)[C@H](Cc1c[nH]c2ccccc12)N1C(=O)c2ccccc2C1=O
Potency [1]: inactive

Nc1ccc(S(=O)(=O)Nc2ccccn2)cc1
Potency [1]: inactive

C1COC(NC(C2CC2)C2CC2)=N1
Potency [1]: inconclusive: 19 µM [inhibitor, single point]

Cn1c(=O)c2c(ncn2C)n(C)c1=O
activity change, negative = cytotoxicity [2]: inactive: -5.11%
Potency [1]: inconclusive: 19 µM [inhibitor, single point]
Potency [13]: inactive
Potency [3]: inactive

Cc1ccc(-c2cc(C(F)(F)F)nn2-c2ccc(S(N)(=O)=O)cc2)cc1
activity change, negative = cytotoxicity [4]: active: -132%
Potency [10]: inconclusive: 50.1 µM [falling, partial curve]
viability change, negative = cytotoxic [5]: inconclusive: -53.4%
activity change, negative = cytotoxicity [2]: inconclusive: -35.8%
caspase-3 activation [14]: inconclusive: 36.1%
caspase-3 activation [15]: inconclusive: 32.2%

Nc1c2c(nc3ccccc13)CCCC2
Potency [10]: inconclusive: 50.1 µM [falling, partial curve]

COc1ccc2[nH]cc(CCNC(C)=O)c2c1
Potency [1]: inconclusive: 19 µM [inhibitor, single point]
caspase-3 activation [16]: inactive: 1.66% and inactive: 1.03%
Potency [12]: inactive

CC(C)(Sc1ccc(CCN(CCCCC2CCCCC2)C(=O)NC2CCCCC2)cc1)C(=O)O
Potency [1]: inconclusive: 12.6 µM [activator, partial curve, poor fit]
Potency [3]: active: 3.98 µM
Potency [12]: active: 14.1 µM

Cc1cccc(N(C)C(=S)Oc2ccc3ccccc3c2)c1
Potency [1]: inconclusive: 19 µM [activator, single point]
Potency [13]: inconclusive: 1.26 µM [inhibitor, full curve, poor fit]

— PubChem BioAssay (NCATS)
